This is one part of the list.
What was measured:
Test in all cases: glycan array binding signal (z-score within array); higher = stronger binding
Conditions in all cases: glycan notation: IUPAC condensed, linker removed; mutation: D22R
[1] = molecular target: Fuc(a1-2)Gal
Outline: (§1)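 Columns mapping to the same glycan were averaged after glycan names were converted to IUPAC-condensed notation. The data come from 3228 arrays in the Consortium for Functional Glycomics database, limited to those with an available protein sequence. Binding is reported as a within-array Z-score averaged across arrays of one protein sequence and across linkers.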

[2] = molecular target: Fuc(a1-2)Gal(b1-3)GalNAc
Outline: as §1

[3] = molecular target: Fuc(a1-2)Gal(b1-3)GalNAc(a1-3)[Fuc(a1-2)]Gal(b1-4)Glc
Outline: as §1

[4] = molecular target: Fuc(a1-2)Gal(b1-3)GalNAc(a1-3)[Fuc(a1-2)]Gal(b1-4)GlcNAc
Outline: as §1

[5] = molecular target: Fuc(a1-2)Gal(b1-3)GalNAc(b1-3)Gal
Outline: as §1

[6] = molecular target: Fuc(a1-2)Gal(b1-3)GalNAc(b1-3)Gal(a1-4)Gal(b1-4)Glc
Outline: as §1

[7] = molecular target: Fuc(a1-2)Gal(b1-3)GalNAc(b1-4)[Neu5Ac(a2-3)]Gal(b1-4)Glc
Outline: as §1

[8] = molecular target: Fuc(a1-2)Gal(b1-3)GlcNAc
Outline: as §1

[9] = molecular target: Fuc(a1-2)Gal(b1-3)GlcNAc(b1-2)Man(a1-3)[Fuc(a1-2)Gal(b1-3)GlcNAc(b1-2)Man(a1-6)]Man(b1-4)GlcNAc(b1-4)GlcNAc
Outline: as §1

[10] = molecular target: Fuc(a1-2)Gal(b1-3)GlcNAc(b1-2)Man(a1-3)[Fuc(a1-2)Gal(b1-3)GlcNAc(b1-2)Man(a1-6)]Man(b1-4)GlcNAc(b1-4)[Fuc(a1-6)]GlcNAc
Outline: as §1

[11] = molecular target: Fuc(a1-2)Gal(b1-3)GlcNAc(b1-3)Gal(b1-4)Glc
Outline: as §1

[12] = molecular target: Fuc(a1-2)Gal(b1-3)GlcNAc(b1-3)GalNAc
Outline: as §1

[13] = molecular target: Fuc(a1-2)Gal(b1-3)GlcNAc(b1-3)[Fuc(a1-2)Gal(b1-3)GlcNAc(b1-6)]GalNAc
Outline: as §1

[14] = molecular target: Fuc(a1-2)Gal(b1-3)GlcNAc(b1-3)[Gal(b1-4)GlcNAc(b1-6)]Gal(b1-4)Glc
Outline: as §1

[15] = molecular target: Fuc(a1-2)Gal(b1-3)GlcNAc(b1-3)[Neu5Ac(a2-6)Gal(b1-4)GlcNAc(b1-6)]Gal(b1-4)Glc
Outline: as §1

[16] = molecular target: Fuc(a1-2)Gal(b1-3)GlcNAc6S
Outline: as §1

[17] = molecular target: Fuc(a1-2)Gal(b1-3)[Fuc(a1-4)]GlcNAc
Outline: as §1

[18] = molecular target: Fuc(a1-2)Gal(b1-3)[Fuc(a1-4)]GlcNAc(b1-2)Man(a1-3)[Fuc(a1-2)Gal(b1-3)[Fuc(a1-4)]GlcNAc(b1-2)Man(a1-3)]Man(b1-4)GlcNAc(b1-4)GlcNAc
Outline: as §1

[19] = molecular target: Fuc(a1-2)Gal(b1-3)[Fuc(a1-4)]GlcNAc(b1-2)Man(a1-3)[Fuc(a1-2)Gal(b1-3)[Fuc(a1-4)]GlcNAc(b1-2)Man(a1-6)]Man(b1-4)GlcNAc(b1-4)[Fuc(a1-6)]GlcNAc(b1-4)[Fuc(a1-6)]GlcNAc
Outline: as §1

[20] = molecular target: Fuc(a1-2)Gal(b1-3)[Fuc(a1-4)]GlcNAc(b1-3)[Fuc(a1-3)[Gal(b1-4)]GlcNAc(b1-6)]Gal(b1-4)Glc
Outline: as §1

[21] = molecular target: Fuc(a1-2)Gal(b1-3)[Fuc(a1-4)]GlcNAc(b1-3)[Gal(b1-4)GlcNAc(b1-6)]Gal(b1-4)Glc
Outline: as §1

[22] = molecular target: Fuc(a1-2)Gal(b1-4)Fuc(a1-3)]GlcNAc(b1-2)Man(a1-3)[Fuc(a1-2)Gal(b1-4)[Fuc(a1-3)]GlcNAc(b1-2)Man(a1-6)]Man(b1-4)GlcNAc(b1-4)GlcNAc
Outline: as §1

[23] = molecular target: Fuc(a1-2)Gal(b1-4)Glc
Outline: as §1

[24] = molecular target: Fuc(a1-2)Gal(b1-4)Glc6S
Outline: as §1

[25] = molecular target: Fuc(a1-2)Gal(b1-4)GlcNAc
Outline: as §1

[26] = molecular target: Fuc(a1-2)Gal(b1-4)GlcNAc(b1-2)Man
Outline: as §1

[27] = molecular target: Fuc(a1-2)Gal(b1-4)GlcNAc(b1-2)Man(a1-3)[Fuc(a1-2)Gal(b1-4)GlcNAc(b1-2)Man(a1-6)]Man(b1-4)GlcNAc(b1-4)GlcNAc
Outline: as §1

[28] = molecular target: Fuc(a1-2)Gal(b1-4)GlcNAc(b1-2)Man(a1-3)[Fuc(a1-2)Gal(b1-4)GlcNAc(b1-2)Man(a1-6)]Man(b1-4)GlcNAc(b1-4)[Fuc(a1-6)]GlcNAc
Outline: as §1

[29] = molecular target: Fuc(a1-2)Gal(b1-4)GlcNAc(b1-2)[Fuc(a1-2)Gal(b1-4)GlcNAc(b1-4)]Man(a1-3)[Fuc(a1-2)Gal(b1-4)GlcNAc(b1-2)Man(a1-6)]Man(b1-4)GlcNAc(b1-4)GlcNAc
Outline: as §1

[30] = molecular target: Fuc(a1-2)Gal(b1-4)GlcNAc(b1-3)Gal(b1-4)GlcNAc
Outline: as §1

[31] = molecular target: Fuc(a1-2)Gal(b1-4)GlcNAc(b1-3)Gal(b1-4)GlcNAc(b1-2)Man(a1-3)[Fuc(a1-2)Gal(b1-4)GlcNAc(b1-3)Gal(b1-4)GlcNAc(b1-2)Man(a1-6)]Man(b1-4)GlcNAc(b1-4)GlcNAc
Outline: as §1

[32] = molecular target: Fuc(a1-2)Gal(b1-4)GlcNAc(b1-3)Gal(b1-4)GlcNAc(b1-3)Gal(b1-4)GlcNAc
Outline: as §1

[33] = molecular target: Fuc(a1-2)Gal(b1-4)GlcNAc(b1-3)GalNAc
Outline: as §1

[34] = molecular target: Fuc(a1-2)Gal(b1-4)GlcNAc(b1-3)[Fuc(a1-2)Gal(b1-4)GlcNAc(b1-6)]GalNAc
Outline: as §1

[35] = molecular target: Fuc(a1-2)Gal(b1-4)GlcNAc(b1-3)[Fuc(a1-3)[Gal(b1-4)]GlcNAc(b1-6)]Gal(b1-4)Glc
Outline: as §1

[36] = molecular target: Fuc(a1-2)Gal(b1-4)GlcNAc(b1-6)GalNAc
Outline: as §1

[37] = molecular target: Fuc(a1-2)Gal(b1-4)GlcNAc6S
Outline: as §1

[38] = molecular target: Fuc(a1-2)Gal(b1-4)[Fuc(a1-3)]GlcNAc
Outline: as §1

[39] = molecular target: Fuc(a1-2)Gal(b1-4)[Fuc(a1-3)]GlcNAc(b1-2)Man(a1-3)[Fuc(a1-2)Gal(b1-4)[Fuc(a1-3)]GlcNAc(b1-2)Man(a1-6)]Man(b1-4)GlcNAc(b1-4)[Fuc(a1-6)]GlcNAc
Outline: as §1

[40] = molecular target: Fuc(a1-2)Gal(b1-4)[Fuc(a1-3)]GlcNAc(b1-2)[Fuc(a1-2)Gal(b1-4)[Fuc(a1-3)]GlcNAc(b1-4)]Man(a1-3)[Fuc(a1-2)Gal(b1-4)[Fuc(a1-3)]GlcNAc(b1-2)Man(a1-6)]Man(b1-4)GlcNAc(b1-4)GlcNAc
Outline: as §1

[41] = molecular target: Fuc(a1-2)Gal(b1-4)[Fuc(a1-3)]GlcNAc(b1-3)Gal(b1-4)[Fuc(a1-3)]GlcNAc
Outline: as §1

[42] = molecular target: Fuc(a1-2)Gal(b1-4)[Fuc(a1-3)]GlcNAc(b1-3)Gal(b1-4)[Fuc(a1-3)]GlcNAc(b1-3)Gal(b1-4)[Fuc(a1-3)]GlcNAc
Outline: as §1

[43] = molecular target: Fuc(a1-2)Gal(b1-4)[Fuc(a1-3)]GlcNAc(b1-3)GalNAc
Outline: as §1

[44] = molecular target: Fuc(a1-2)Gal(b1-4)[Fuc(a1-3)]GlcNAc(b1-3)[Neu5Ac(a2-6)Gal(b1-4)GlcNAc(b1-6)]Gal(b1-4)Glc
Outline: as §1

[45] = molecular target: Fuc(a1-2)Gal3S(b1-4)GlcNAc
Outline: as §1

B1: MpL2 (Macrolepiota procera) (protein)
chain: MSTQVSSGQTYKITNVKAGTVIRLSGEDNKSIIGYPYHSGKNQQWTFNWTGKAWTLRSASSGSYLGIEGTPADGTRLVAVNDPFEWHIWRDEANENAFRIFVPFTNYNLDLSGYGDTTPGTPVQLWWTWEGLHQTWTIDRP
glycan array binding signal (z-score) [1]: 0.146 | glycan array binding signal (z-score) [2]: -0.149 | glycan array binding signal (z-score) [3]: -0.079 | glycan array binding signal (z-score) [4]: -0.287 | glycan array binding signal (z-score) [5]: 0.001 | glycan array binding signal (z-score) [6]: -0.291 | glycan array binding signal (z-score) [7]: -0.083 | glycan array binding signal (z-score) [8]: -0.416 | glycan array binding signal (z-score) [9]: 0.429 | glycan array binding signal (z-score) [10]: 0.305 | glycan array binding signal (z-score) [11]: 0.096 | glycan array binding signal (z-score) [12]: -0.233 | glycan array binding signal (z-score) [13]: -1.06 | glycan array binding signal (z-score) [14]: -0.239 | glycan array binding signal (z-score) [15]: -0.277 | glycan array binding signal (z-score) [16]: -0.404 | glycan array binding signal (z-score) [17]: -0.365 | glycan array binding signal (z-score) [18]: -0.016 | glycan array binding signal (z-score) [19]: 0.051 | glycan array binding signal (z-score) [20]: 0.071 | glycan array binding signal (z-score) [21]: -0.182 | glycan array binding signal (z-score) [22]: 1.6 | glycan array binding signal (z-score) [23]: -0.454 | glycan array binding signal (z-score) [24]: -0.129 | glycan array binding signal (z-score) [25]: -0.202 | glycan array binding signal (z-score) [26]: 0.129 | glycan array binding signal (z-score) [27]: -0.213 | glycan array binding signal (z-score) [28]: 0.543 | glycan array binding signal (z-score) [29]: -0.152 | glycan array binding signal (z-score) [30]: -0.598 | glycan array binding signal (z-score) [31]: -0.172 | glycan array binding signal (z-score) [32]: -0.053 | glycan array binding signal (z-score) [33]: -0.073 | glycan array binding signal (z-score) [34]: 0.046 | glycan array binding signal (z-score) [35]: 0.805 | glycan array binding signal (z-score) [36]: -0.275 | glycan array binding signal (z-score) [37]: -0.327 | glycan array binding signal (z-score) [38]: -0.054 | glycan array binding signal (z-score) [39]: 0.51 | glycan array binding signal (z-score) [40]: 0.835 | glycan array binding signal (z-score) [41]: -0.078 | glycan array binding signal (z-score) [42]: -0.242 | glycan array binding signal (z-score) [43]: 0.928 | glycan array binding signal (z-score) [44]: -0.447 | glycan array binding signal (z-score) [45]: 0.107

— the supplement of paper PMC8728848
